Data: patent US20250270341A1 (Alector, published 2025)

B1: CD98hc.04.011 (2+1 bispecific antibody) (bispecific antibody)
heavy 1: EVRLLESGGGLVQPGGSLRLSCAASGFTFSNYAMGWVRQAPGKGLEWVSAISGSGGSTYYADSVKGRFTTSRDDSKNALYLQMNSLRAEDTAVYYCARGGPGWYAADVWGQGTTVTVSSASTKGPSVFPLAPSSKSTSGGTAALGCLVKDYFPEPVTVSWNSGALTSGVHTFPAVLQSSGLYSLSSVVTVPSSSLGTQTYICNVNHKPSNTKVDKKV[here human IgG1 Fc with changes without letters]GGGGSGGGGSGGGGSDVQLQESGPDLVKPSQSLSLTCSVTVYSFTSVYSWHWIRQFPGNKLEWMGYIHDSGTTNYNPSLKSRISVTRDTSKNQFFLQLNSVTTEDTATYYCARGRPYGYDGFAYWGQGTLVTVSAGGSEGKSSGSGSESKSTGGSDIQMTQSSSYLSVSLGDRVTITCKASDHINNWLAWYQQKPGNAPRLLITGAVNLETGVPSRFSGSGSGKDYTLSITSLQTEDVATYYCQQYWSIPRTFGGGTNLEIK
heavy 2: EVRLLESGGGLVQPGGSLRLSCAASGFTFSNYAMGWVRQAPGKGLEWVSAISGSGGSTYYADSVKGRFTTSRDDSKNALYLQMNSLRAEDTAVYYCARGGPGWYAADVWGQGTTVTVSS[here human IgG1 constant region with changes without letters]
light: DIQMTQSPSSLSASVGDRVTITCRASQSISSYLNWYQQKPGKAPKLLIYAASSLQSGVPSRFSGSGSGTDFTLTISSLQPEDFATYYCQQADLPAFAFGGGTKVEIKRTVAAPSVFIFPPSDEQLKSGTASVVCLLNNFYPREAKVQWKVDNALQSGNSQESVTEQDSKDSTYSLSSTLTLSKADYEKHKVYACEVTHQGLSSPVTKSFNRGEC
B2: CD98hc.04.012 (2+1 bispecific antibody) (bispecific antibody)
heavy 1: EVRLLESGGGLVQPGGSLRLSCAASGFTFSNYAMGWVRQAPGKGLEWVSAISGSGGSTYYADSVKGRFTTSRDDSKNALYLQMNSLRAEDTAVYYCARGGPGWYAADVWGQGTTVTVSSASTKGPSVFPLAPSSKSTSGGTAALGCLVKDYFPEPVTVSWNSGALTSGVHTFPAVLQSSGLYSLSSVVTVPSSSLGTQTYICNVNHKPSNTKVDKKV[here human IgG1 Fc with changes without letters]GGGGSGGGGSGGGGSQVQLQQSGADLVRPGDSVKISCKGSGYTFTDNTLHWVKQSHAKSLEWIGVISPYYGDASYNQKFKGKATMTVDKSSSTAYMELARLTSEDSAIYYCARVGGRLRLGYYFDHWGQGTTLTVSSGGSEGKSSGSGSESKSTGGSNIMMTQSPSSLAVSAGEKVTMNCKSSQSVLSSSNQKNYLAWYQQKPGQSPKLLIYWASTRESGVPARFTGSGSGTDFSLTITSVQAEDLAVYYCLQYLSSYTFGGGTKLEIK
heavy 2: EVRLLESGGGLVQPGGSLRLSCAASGFTFSNYAMGWVRQAPGKGLEWVSAISGSGGSTYYADSVKGRFTTSRDDSKNALYLQMNSLRAEDTAVYYCARGGPGWYAADVWGQGTTVTVSS[here human IgG1 constant region with changes without letters]
light: B1 light
B3: CD98hc.04.013 (2+1 bispecific antibody) (bispecific antibody)
heavy 1: EVRLLESGGGLVQPGGSLRLSCAASGFTFSNYAMGWVRQAPGKGLEWVSAISGSGGSTYYADSVKGRFTTSRDDSKNALYLQMNSLRAEDTAVYYCARGGPGWYAADVWGQGTTVTVSSASTKGPSVFPLAPSSKSTSGGTAALGCLVKDYFPEPVTVSWNSGALTSGVHTFPAVLQSSGLYSLSSVVTVPSSSLGTQTYICNVNHKPSNTKVDKKV[here human IgG1 Fc with changes without letters]GGGGSGGGGSGGGGSEVQLVESGGDLGMPGGSLKLSCAASGFALSGYDMSWVRQTPDKRLEWVAYLSSGGGSTYYPYTVKGRFTISRDNAQNTLYLQMSSLKSEDTAIYYCARHSEVRPWFGYWGQGTLVTVSAGGSEGKSSGSGSESKSTGGSDIVMSQSPSSLAVSVGEKVTLTCKSSQSLLYSGNQKNYLAWYQQNPGQSPKLLIYWASTRESGVPDRFTGSGSGTDFTLTISSVKAEDLAVYYCQQYYTYPPTFGAGTKLGLK
heavy 2: EVRLLESGGGLVQPGGSLRLSCAASGFTFSNYAMGWVRQAPGKGLEWVSAISGSGGSTYYADSVKGRFTTSRDDSKNALYLQMNSLRAEDTAVYYCARGGPGWYAADVWGQGTTVTVSS[here human IgG1 constant region with changes without letters]
light: B1 light

Target: T1, huCD98hc ECD Avi-His (human, UniProt P08195 105-529)
T1 construct: biotinylated on the Avi tag where captured on streptavidin; also called Human CD98-AVI-His; Human CD98hc-AVI-His
T1 sequence: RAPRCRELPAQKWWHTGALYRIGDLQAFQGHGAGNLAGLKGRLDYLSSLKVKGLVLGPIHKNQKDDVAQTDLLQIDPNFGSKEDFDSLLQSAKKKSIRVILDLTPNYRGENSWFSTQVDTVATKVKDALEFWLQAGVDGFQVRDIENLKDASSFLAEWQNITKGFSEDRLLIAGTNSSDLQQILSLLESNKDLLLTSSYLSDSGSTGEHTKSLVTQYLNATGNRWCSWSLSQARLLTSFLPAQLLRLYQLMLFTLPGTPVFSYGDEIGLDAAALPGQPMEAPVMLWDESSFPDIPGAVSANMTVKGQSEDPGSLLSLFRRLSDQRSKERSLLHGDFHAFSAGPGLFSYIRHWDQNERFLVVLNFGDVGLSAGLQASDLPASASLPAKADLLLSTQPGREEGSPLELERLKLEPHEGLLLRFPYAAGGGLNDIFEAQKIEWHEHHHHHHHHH
Assay: ELISA, 1 ug/ml

Binder	ELISA fold-change relative to isotype hIgG
B1	2.7
B2	29.2
B3	23.8

Target: T2, Cyno CD98hc ECD Avi-His (cynomolgus macaque, UniProt P08195 105-529 (human entry))
T2 construct: biotinylated on the Avi tag where captured on streptavidin; also called Cyno CD98-AVI-His; Cyno CD98hc-AVI-His
T2 chain: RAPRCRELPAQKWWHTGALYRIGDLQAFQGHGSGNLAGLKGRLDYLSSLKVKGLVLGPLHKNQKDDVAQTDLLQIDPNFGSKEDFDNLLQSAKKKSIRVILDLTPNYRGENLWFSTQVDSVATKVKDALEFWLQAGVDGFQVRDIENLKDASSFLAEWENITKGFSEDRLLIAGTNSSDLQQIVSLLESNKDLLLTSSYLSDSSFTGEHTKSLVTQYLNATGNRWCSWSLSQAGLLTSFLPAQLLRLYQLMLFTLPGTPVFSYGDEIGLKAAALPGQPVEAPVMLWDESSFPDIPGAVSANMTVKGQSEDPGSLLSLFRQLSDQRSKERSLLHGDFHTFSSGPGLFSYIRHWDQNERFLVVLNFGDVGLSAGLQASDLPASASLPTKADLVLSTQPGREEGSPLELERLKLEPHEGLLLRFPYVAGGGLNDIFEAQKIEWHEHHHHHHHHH
Assay: ELISA, 1 ug/ml

Binder	ELISA fold-change relative to isotype hIgG
B1	2.1
B2	21.4
B3	23.6

Target: T3, muCD98hc ECD Avi-His (mouse, UniProt P10852 100-526)
T3 construct: biotinylated on the Avi tag where captured on streptavidin; also called Mouse CD98-AVI-His; Mouse CD98hc-AVI-His
T3 sequence: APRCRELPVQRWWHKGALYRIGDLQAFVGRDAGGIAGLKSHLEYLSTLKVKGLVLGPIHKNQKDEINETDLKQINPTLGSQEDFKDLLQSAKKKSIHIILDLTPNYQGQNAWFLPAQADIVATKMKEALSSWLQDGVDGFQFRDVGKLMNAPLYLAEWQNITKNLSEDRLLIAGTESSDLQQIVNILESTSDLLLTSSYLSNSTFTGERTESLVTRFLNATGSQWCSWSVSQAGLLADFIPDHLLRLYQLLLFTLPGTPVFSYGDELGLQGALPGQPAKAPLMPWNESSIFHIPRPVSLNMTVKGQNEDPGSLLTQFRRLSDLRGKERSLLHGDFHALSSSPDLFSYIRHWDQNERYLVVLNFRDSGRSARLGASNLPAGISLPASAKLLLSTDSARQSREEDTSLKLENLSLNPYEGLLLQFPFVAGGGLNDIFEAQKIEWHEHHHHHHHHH
Assay: ELISA, 1 ug/ml

Binder	ELISA fold-change relative to isotype hIgG
B1	1.4
B2	1.5
B3	2

Target: T4, Human TfR-AVI-His (control) (human, UniProt P02786)
T4 construct: control protein; also called Avi-His-tagged human TfR; human transferrin receptor
Assay: ELISA, 1 ug/ml

T4 sequence (P02786 89-760 limits assumed): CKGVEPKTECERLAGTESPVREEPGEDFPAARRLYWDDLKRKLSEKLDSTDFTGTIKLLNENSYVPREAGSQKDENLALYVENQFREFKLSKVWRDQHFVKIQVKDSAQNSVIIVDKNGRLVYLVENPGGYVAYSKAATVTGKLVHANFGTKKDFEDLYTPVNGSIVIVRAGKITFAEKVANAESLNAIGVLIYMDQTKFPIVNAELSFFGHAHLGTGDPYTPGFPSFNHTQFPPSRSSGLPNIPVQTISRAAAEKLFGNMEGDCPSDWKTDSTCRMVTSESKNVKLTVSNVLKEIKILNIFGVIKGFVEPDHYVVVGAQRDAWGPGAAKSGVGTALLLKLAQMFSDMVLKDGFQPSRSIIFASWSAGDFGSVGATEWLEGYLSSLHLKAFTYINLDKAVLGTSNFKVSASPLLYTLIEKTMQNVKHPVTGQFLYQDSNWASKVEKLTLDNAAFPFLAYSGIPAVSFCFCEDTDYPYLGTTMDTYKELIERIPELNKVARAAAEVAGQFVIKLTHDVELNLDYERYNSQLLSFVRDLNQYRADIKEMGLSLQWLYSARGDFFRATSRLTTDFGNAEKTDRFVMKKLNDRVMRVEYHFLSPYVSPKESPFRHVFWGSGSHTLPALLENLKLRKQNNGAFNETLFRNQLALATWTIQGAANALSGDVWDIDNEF

Binder	ELISA fold-change relative to isotype hIgG
B1	1.2
B2	1.3
B3	1.6
